Test results reported in the supplement of paper PMC4604168 (melanoma cell lines).
The other results are listed elsewhere or left out. Many values rest on one well or one pass, so single values are uncertain.

System: WM115
Experiment: cell count relative to DMSO control; melanoma cells; higher = more viable cells
Details: library dose: low library concentration; 72 h
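Further: cell number obtained by counting DAPI-stained nuclei in high-throughput microscope images with image analysis software, screen run in 1,536-well plates.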

Row | SMILES | cell count
1 | Nc1nc(F)nc2c1ncn2[C@@H]1O[C@H](CO)[C@@H](O)[C@@H]1O [fludarabine] + NC(=O)Nc1cc(-c2cccc(F)c2)sc1C(=O)N[C@H]1CCCNC1 [AZD7762] (first compound 0.2 µM, partner dose 0.02 µM) | 78.4%
2 | Nc1nc(F)nc2c1ncn2[C@@H]1O[C@H](CO)[C@@H](O)[C@@H]1O [fludarabine] + COc1cc(Nc2ncc(F)c(Nc3ccc4c(n3)NC(=O)C(C)(C)O4)n2)cc(OC)c1OC [Tamatinib] (first compound 0.2 µM, partner dose 0.4 µM) | 88.8%
3 | Nc1ccn([C@@H]2O[C@H](CO)[C@@H](O)C2(F)F)c(=O)n1 [gemcitabine] + O=C(Nc1cccc(Cl)c1)Nc1ncc(CCNc2ncnc3ccsc23)s1 [SNS314] (first compound 0.0004 µM, partner dose 0.0008 µM) | 77.6%
4 | CC(=O)O[C@@]12CO[C@@H]1C[C@H](O)[C@@]1(C)C(=O)[C@H](O)C3=C(C)[C@@H](OC(=O)[C@H](O)[C@@H](NC(=O)OC(C)(C)C)c4ccccc4)C[C@@](O)([C@@H](OC(=O)c4ccccc4)[C@H]21)C3(C)C [Docetaxel] + CC(C)C[C@H](NC(=O)[C@H](Cc1ccccc1)NC(=O)c1cnccn1)B(O)O [Bortezomib] (first compound 0.0001 µM, partner dose 0.001 µM) | 64.3%
5 | Nc1nc(F)nc2c1ncn2[C@@H]1O[C@H](CO)[C@@H](O)[C@@H]1O [fludarabine] + Cn1c(Nc2ccc(C(F)(F)F)cc2)nc2cc(Oc3ccnc(-c4ncc(C(F)(F)F)[nH]4)c3)ccc21 [CHIR265] (first compound 0.2 µM, partner dose 0.08 µM) | 54.5%
6 | CC(=O)O[C@@]12CO[C@@H]1C[C@H](O)[C@@]1(C)C(=O)[C@H](O)C3=C(C)[C@@H](OC(=O)[C@H](O)[C@@H](NC(=O)OC(C)(C)C)c4ccccc4)C[C@@](O)([C@@H](OC(=O)c4ccccc4)[C@H]21)C3(C)C [Docetaxel] + Nc1ccn([C@@H]2O[C@H](CO)[C@@H](O)C2(F)F)c(=O)n1 [gemcitabine] (first compound 0.0001 µM, partner dose 0.0004 µM) | 57.2%
7 | Nc1ncn([C@H]2C[C@H](O)[C@@H](CO)O2)c(=O)n1 [decitabine] + O=C(O)C(=O)Nc1sc2c(c1C(=O)O)CCNC2 [TCS401] (first compound 0.1 µM, partner dose 1.66667 µM) | 78.6%
8 | CO[C@H]1C[C@@H]2CC[C@@H](C)[C@@](O)(O2)C(=O)C(=O)N2CCCC[C@H]2C(=O)O[C@H]([C@H](C)C[C@@H]2CC[C@@H](OCCO)[C@H](OC)C2)CC(=O)[C@H](C)/C=C(\C)[C@@H](O)[C@@H](OC)C(=O)[C@H](C)C[C@H](C)/C=C/C=C/C=C/1C [everolimus] + CC(=O)c1c(C)c2cnc(Nc3ccc(N4CCNCC4)cn3)nc2n(C2CCCC2)c1=O [palbociclib] (first compound 0.02 µM, partner dose 0.04 µM) | 79.2%
9 | CC(=O)O[C@@]12CO[C@@H]1C[C@H](O)[C@@]1(C)C(=O)[C@H](O)C3=C(C)[C@@H](OC(=O)[C@H](O)[C@@H](NC(=O)OC(C)(C)C)c4ccccc4)C[C@@](O)([C@@H](OC(=O)c4ccccc4)[C@H]21)C3(C)C [Docetaxel] + Oc1nc(-c2ccc(C(F)(F)F)cc2)nc2c1CSCC2 [XAV939] (first compound 0.0001 µM, partner dose 2 µM) | 60.2%
10 | Nc1ncn([C@H]2C[C@H](O)[C@@H](CO)O2)c(=O)n1 [decitabine] + CO[C@@H]1[C@H](N(C)C(=O)c2ccccc2)C[C@H]2O[C@]1(C)n1c3ccccc3c3c4c(c5c6ccccc6n2c5c31)C(=O)NC4 [Midostaurin] (first compound 0.1 µM, partner dose 0.08 µM) | 61.7%
11 | CO[C@H]1C[C@@H]2CC[C@@H](C)[C@@](O)(O2)C(=O)C(=O)N2CCCC[C@H]2C(=O)O[C@H]([C@H](C)C[C@@H]2CC[C@@H](OCCO)[C@H](OC)C2)CC(=O)[C@H](C)/C=C(\C)[C@@H](O)[C@@H](OC)C(=O)[C@H](C)C[C@H](C)/C=C/C=C/C=C/1C [everolimus] + COc1ccc(Cl)c(Nc2nc3ccccc3nc2NS(=O)(=O)c2cccc(NC(=O)C(C)(C)N)c2)c1 [XL147] (first compound 0.02 µM, partner dose 0.8 µM) | 92.4%
